# Results as given in the supplement of paper PMC3724861.
# Some of the results follow.
# Test system: T1, Caupolican (Caup) homeodomain DNA-binding domain
# T1 sequence: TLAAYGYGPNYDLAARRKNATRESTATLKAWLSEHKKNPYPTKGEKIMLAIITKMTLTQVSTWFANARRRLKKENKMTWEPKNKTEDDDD
# Assay: PBM E-score (8-mer, recovered from the published 9-mer minima) (E-score (dimensionless, -0.5 to 0.5)); Drosophila protein; higher = stronger relative binding preference, active = 0.31 or more
# How it was run: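 Caup's homeodomain DNA-binding domain (residues 214-303) was produced by in vitro transcription and translation and applied at 100 nM to custom-designed protein binding microarrays. Each value is an enrichment score giving relative binding preference for a short DNA word; higher means stronger. Published 9-mer scores were the minimum of their two constituent 8-mer scores, and the 8-mer values were recovered from those minima. A cutoff of 0.31 marks candidate binding sequences.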
row,Sequence,PBM E-score
1,AATTAAGT,inactive: 0.129
2,CAATGCTG,inactive: -0.0134
3,GGAGTACA,inactive: 0.194
4,CTTGGCAA,inactive: -0.0287
5,CACGGGGG,inactive: -0.25
6,TGACCTCA,inactive: -0.0931
7,CAAAAGCG,inactive: -0.0894
8,ACAAAACT,inactive: 0.184
9,GGAATTCA,≥ 0.0935
10,AGCGTGTA,active: 0.355
11,ACAGTGTG,inactive: 0.0332
12,AATCTAGG,inactive: 0.0382
13,CCTCAATC,inactive: 0.0037
14,ACATAATA,active: 0.323
15,GTGGGTGA,inactive: -0.113
16,GAAACCGA,inactive: -0.0482
17,ACTGATGA,inactive: 0.122
18,GAATAGAC,inactive: 0.0519
19,GTTGATCA,inactive: 0.19
20,CCAAAAGG,inactive: -0.148
21,CTGATCAA,inactive: 0.0558
22,CATCGGAG,inactive: -0.0367
23,CTGCAAGC,inactive: -0.102
24,CCAGCAGA,inactive: -0.105
25,GTACCCTA,inactive: 0.0117

row,Sequence,PBM E-score
1,AACGTCTT,inactive: 0.0218
2,GCATCAGA,inactive: 0.121
3,AAATTAAA,inactive: 0.131
4,GTCTCCGA,inactive: -0.0444
5,ACTGGCCA,≥ -0.0226
6,ACGAAACA,inactive: 0.188
7,AATCTGCC,inactive: -0.0243
8,GTCTGCCA,inactive: -0.0852
9,TATAAACA,inactive: 0.308
10,CGCTGACG,inactive: -0.118
11,TATGTGCA,inactive: 0.151
12,AAGGCGCT,inactive: -0.0654
13,CGCTGCAA,inactive: -0.0648
14,CAGTTTGA,inactive: 0.097
15,GCCGCTCC,inactive: -0.255
16,CCCCGGAG,inactive: -0.246
17,GTCACAAA,inactive: 0.124
18,AATTCTCT,inactive: -0.117
19,CGCTCAAA,inactive: -0.0531
20,CACTGACG,inactive: -0.0888
21,GATAATTA,inactive: 0.158
22,AACTGCTG,inactive: -0.0391
23,AGAGGGTA,inactive: -0.0861
24,AAATAGGA,inactive: 0.0505
25,CGCAGCCG,inactive: -0.267

row,Sequence,PBM E-score
1,CCGTTCTC,inactive: -0.0675
2,ATCCAATA,inactive: 0.182
3,AGCTACCG,inactive: -0.148
4,AGTGTACG,inactive: 0.152
5,ACGCCACT,inactive: -0.0388
6,CAGAACTA,inactive: 0.051
7,CCCAACCC,inactive: -0.138
8,TAAGCGGA,inactive: -0.0236
9,CGTTAGCC,inactive: -0.0828
10,TACTCTCA,inactive: 0.0596
11,CGAAGCGC,inactive: -0.16
12,GAAAGGAC,inactive: 0.00953
13,GTTGAGCA,inactive: 0.0452
14,GACAGCTC,inactive: -0.0794
15,GATTGTGA,inactive: 0.0839
16,ATAGTTAA,inactive: 0.158
17,CGCCGGTC,inactive: -0.248
18,CCGAGCCC,inactive: -0.26
19,TGGTCTAA,inactive: -0.0361
20,CTACTGTA,inactive: 0.182
21,CCCTACCA,inactive: -0.0656
22,AGTTTGCC,inactive: -0.0319
23,AAAATTGA,inactive: -0.0569
24,CGAAAGGC,inactive: -0.147
25,GCGGCAGA,inactive: -0.239

row,Sequence,PBM E-score
1,GACAGGCC,inactive: 0.0111
2,CGAAGGCG,inactive: -0.203
3,GTGTCATA,inactive: 0.292
4,AGAGGACA,inactive: 0.114
5,ATCTAACC,inactive: 0.102
6,CCCAACGG,inactive: -0.185
7,AACCGCAT,inactive: 0.0384
8,ATCGCGAC,inactive: 0.00275
9,AGTTCGCA,inactive: -0.0631
10,ACCCGTTC,inactive: -0.0179
11,AAGCCACC,inactive: -0.185
12,CCTGAGAG,inactive: -0.199
13,ATGACAAA,inactive: 0.248
14,CGAGCTAG,inactive: -0.12
15,CGTTTAAC,inactive: 0.111
16,ACTAAACT,inactive: 0.0396
17,AATTGGCT,inactive: -0.0217
18,GCATTAGA,inactive: 0.0301
19,CCCTGCAC,inactive: -0.0942
20,GCGCCGAC,inactive: -0.199
21,AACTTGAC,inactive: 0.11
22,CTACGGAA,inactive: -0.0238
23,CGGAGCTA,inactive: -0.128
24,AGGTGGCA,inactive: -0.141
25,CCGGTGAA,inactive: -0.0774

row,Sequence,PBM E-score
1,TATGCCAA,inactive: 0.0609
2,AGTGGAGC,inactive: -0.0581
3,ATAAATCA,inactive: 0.121
4,AAAGCCTC,inactive: -0.0904
5,AAGGTCGT,inactive: -0.0388
6,AGGGAGTC,inactive: -0.0759
7,GATACCGA,inactive: 0.0217
8,GAGAGTAC,inactive: 0.0707
9,GGATACCA,inactive: 0.0236
10,TCCCATAA,inactive: 0.0278
11,AACACAGT,≥ 0.277
12,TACCTCGA,inactive: 0.0358
13,CAGTAACG,inactive: -0.0444
14,GCAGAGGA,inactive: -0.0494
15,ACAGTGGC,inactive: -0.0915
16,GGGCTGGA,inactive: -0.213
17,CGTTCAAG,inactive: -0.0687
18,AAACTCGC,inactive: -0.0492
19,AGCCCCAC,inactive: -0.21
20,AAGAGATC,inactive: -0.00653
21,CATCTACG,inactive: 0.0585
22,AGGTGCTC,inactive: -0.109
23,ATTTACCA,inactive: 0.151
24,ACAGTTGC,inactive: 0.0312
25,CCGCTTCC,inactive: -0.172

row,Sequence,PBM E-score
1,CCACTTAA,inactive: -0.0517
2,GCCGCCAC,inactive: -0.268
3,AACCGGAG,inactive: -0.0752
4,CTGCAAAG,inactive: -0.169
5,GGGGAGCA,inactive: -0.143
6,AGCATCCA,inactive: -0.0364
7,GCAAATCC,inactive: 0.00535
8,ATGGTTAG,inactive: 0.134
9,CTCCACAC,inactive: -0.111
10,CTATCCTA,inactive: -0.0751
11,CGGTAATC,inactive: 0.00406
12,CGGCAACG,inactive: -0.192
13,GGCTAGAC,inactive: -0.11
14,CTGAAGTA,inactive: -0.0424
15,ACAACGTG,inactive: 0.273
16,CAGCTAAG,inactive: -0.116
17,CTGCCCAG,inactive: -0.259
18,CCAGTTAG,inactive: -0.0607
19,CTGCTTAA,inactive: -0.0935
20,ATTTGGCA,inactive: -0.00352
21,GAGACTCA,inactive: -0.0625
22,CCACCGCC,inactive: -0.244
23,CTCGAACA,inactive: 0.166
24,CAATTGAC,inactive: 0.115
25,AGTTCTAC,inactive: 0.0527

row,Sequence,PBM E-score
1,ACCGACCG,inactive: -0.0972
2,CCGTAGCC,inactive: -0.222
3,ACTTACTG,inactive: 0.0395
4,CCATTGCA,inactive: 0.0848
5,ATTTCTTC,inactive: -0.0192
6,AGGGGCTG,inactive: -0.105
7,ACTCATGG,inactive: 0.0295
8,GCCTGTTA,inactive: 0.159
9,GGCAACCA,inactive: -0.0801
10,AGATGAAG,inactive: -0.0735
11,TGTGCCAA,inactive: 0.0559
12,GCCAAACA,inactive: 0.122
13,GCCGCACC,inactive: -0.211
14,CCTGACAG,inactive: 0.0999
15,CACAATAA,inactive: 0.0841
16,CCAAGCTC,inactive: -0.0725
17,CAGTATTC,inactive: 0.0649
18,CAATCGGC,inactive: -0.0316
19,ACAAATTC,inactive: 0.178
20,AGTCAACT,inactive: 0.063
21,CTAGTGCA,inactive: -0.031
22,CTGTACGC,inactive: 0.037
23,GCCGAAAA,inactive: -0.0104
24,AGGGCTCA,≥ -0.0983
25,CTCCCGTC,inactive: -0.0757

row,Sequence,PBM E-score
1,ACAGTACT,inactive: 0.18
2,AATCGGGA,inactive: 0.00503
3,CTATCGAC,inactive: -0.0977
4,GCAAAGCA,inactive: -0.0364
5,GCTCGGCC,inactive: -0.274
6,AAATACCC,inactive: -0.0207
7,TATGGCAA,inactive: -0.0466
8,GACGGCTC,inactive: -0.149
9,CTGGAGCA,inactive: -0.058
10,CCTATCTC,inactive: -0.132
11,CTTCTGCC,inactive: -0.138
12,GTTTGGCA,inactive: -0.0334
13,AAGGTTTG,inactive: 0.0466
14,AGCGACAA,inactive: 0.228
15,GCCGTCAA,inactive: -0.0776
16,CCTGATCC,inactive: -0.0521
17,CGAGCTTA,inactive: -0.112
18,AAGCTTGT,inactive: 0.282
19,AAGTTCGA,inactive: 0.0677
20,CATACAGA,inactive: 0.151
21,ATGGAGGC,inactive: -0.149
22,CTACGTAA,inactive: -0.0257
23,ATGCCTGC,inactive: -0.036
24,AGGGACTC,inactive: -0.146
25,ACCAAGTG,inactive: -0.0646

row,Sequence,PBM E-score
1,AGGGCGGA,inactive: -0.272
2,TAACGATA,inactive: 0.161
3,ATGTCGTA,active: 0.337
4,AGAACCTG,inactive: 0.0622
5,GATTAAAC,inactive: 0.0623
6,CGTGTCCA,inactive: 0.227
7,TATGCCGA,≥ 0.0283
8,AATGGTGT,inactive: 0.223
9,CCTGTCCC,inactive: 0.0153
10,ATATTTCC,inactive: 0.0539
11,CAGCTCAG,inactive: -0.0744
12,GTCGGCGA,inactive: -0.188
13,TGATCGAA,inactive: 0.0508
14,ATGGCATG,inactive: 0.128
15,AGCTAAAA,inactive: 0.0384
16,ATTCGAAG,inactive: -0.0612
17,TCTTTACA,inactive: 0.213
18,CGCTCCAC,inactive: -0.181
19,CATTTTAG,inactive: 0.0311
20,ACAGCCTC,inactive: -0.0694
21,GCACCATA,inactive: 0.061
22,CTGCCGTA,inactive: -0.165
